# Test results reported in PMC12136788.
# The other results are listed elsewhere or left out.
# B1: chr8:37846853:37847175:-|CDS|ENSG00000104221|control|control|control (ssRNA)
# RNA: GGGAGUUCUACAGUCCGACGAUCGGCCAUCUGCACGCUGUUGUAUGCAGAUUUGGAUGUGUUUUCUAGCACUUACAUGCAGAUAGUGAAGCUCCUGGGACUGGAUGUGCCAUCUCUGUGCUUGGCAGAACUGGUGAAGACCUACAACAGAGGAUUGAGCAUCA
# B2: ENSG00000044574:stop:overlap|stop_codon|ENSG00000044574|stop_codon|NA|stop_codon (ssRNA)
# RNA: GGGAGUUCUACAGUCCGACGAUCAUGGAAGUGCAGGCCCUCCCCCAACUGGUGAAGAGGAUACAGCAGAAAAAGAUGAGUUGUAGACACUGAUCUGCUAGUGCUGUAAUAUUGUAAAUACUGGACUCAGGAACUUUUGUUAGGCAACAGAGGAUUGAGCAUCA
# B3: chr1:158765746:158766682:-|CDS|ENSG00000197403|control|control|control (ssRNA)
# RNA: GGGAGUUCUACAGUCCGACGAUCUUGCACUGAUACGUCUAUAAAUGUCCUAGUAGAUUUUGUUAUAAAUUCCUGCAAGAUCCUAGCCACCUUCCUGCUGAUCCUCUGCUCCUAUGUGCAGAUCAUCUGCACAGUGCUCAGAAUCAACAGAGGAUUGAGCAUCA
# B4: chr6:134965076:134965177:-|3pUTR|ENSG00000112339|unk|FALSE|unique (ssRNA)
# RNA: GGGAGUUCUACAGUCCGACGAUCAAAGGAACAAUGUGCAAUUGAUAUGUUUUUAGAUGAGAGAGAAAAAUUAAAGCUAAAAUUAGCUGCAAAGAAGUAUUAAUAAUCACCUCUGCAAAAAUUCUAAGUUGCCAACUGGCAAAGCAACAGAGGAUUGAGCAUCA
# B5: ENSG00000198589:be:win_7801|CDS|ENSG00000198589|bound_else_gene|NA|bound_elsewhere_windowed (ssRNA)
# RNA: GGGAGUUCUACAGUCCGACGAUCGUCUGUGGCUUCUGGGAUAAAAGUUUCAGAGUCUAUUCUACAGACACAGGAAGAUUGAUCCAAGUGGUGUUUGGCCAUUGGGAUGUCGUCACUUGCCUUGCUCGUUCUGAGUCAUAUAUUCAACAGAGGAUUGAGCAUCA
# B6: ENSG00000198589:be:win_9501|3pUTR|ENSG00000198589|bound_else_gene|NA|bound_elsewhere_windowed (ssRNA)
# RNA: GGGAGUUCUACAGUCCGACGAUCCGAAACAAUGUUAUUUGGUGGUGUAUAAUUCUACUUUUCUAGUAGAUUACUGUGUGGAAUUCUGUGAAAAAUAUUUGAGAAAAGGCCUGUAUUGCAUAAAUAAAUUCUUUGUAUGUUGUGCAACAGAGGAUUGAGCAUCA
# B7: chr11:72192224:72192325:+|CDS|ENSG00000110195|unk|total|mutant (ssRNA)
# RNA: GGGAGUUCUACAGUCCGACGAUCAGACAUGGCUCAGCGGAUGACAACACAGCUGCUGCUCCUUCCCGUGUGGGUGGCUGCCGCCGGGGAGGCUCAGACAAGGAUUGCAUGGGCCAGGACUGAGCUUCUCAAUGUCUGCAUGAACAACAGAGGAUUGAGCAUCA
# B8: chr1:10469171:10469279:-|CDS|ENSG00000160049|unk|FALSE|unique (ssRNA)
# RNA: GGGAGUUCUACAGUCCGACGAUCGUGGAUGAUGACGAUUACUUUCUGUGUCUACCUUCCAAUACUAAGUUUGUGGCAUUGGCUAGUAAUGAGAAAUGGGCAUACAACAAUUCAGGUAAGAAACUCUAGCCAUGUAUAAAACGGCAACAGAGGAUUGAGCAUCA
# B9: chr19:35513049:35513475:-|CDS|ENSG00000161249|control|control|control (ssRNA)
# RNA: GGGAGUUCUACAGUCCGACGAUCUGGCCAAGGGACCAGAGAAGCAGUUGGCACUGGAGUCAGGCAGGUUCCAGGCUUUGGCGUAGCAGAUGCUUUGGGCAACAGGGUCGGGGAAGCAGCCCAUGCUCUGGGAAACACUGGGCACAACAGAGGAUUGAGCAUCA
# B10: chr3:120327094:120327202:-|3pUTR|ENSG00000163428|unk|FALSE|unique (ssRNA)
# RNA: GGGAGUUCUACAGUCCGACGAUCGAAGAGAAGUCACCAAACACCUAGGGACAGUCCUAGGCCUAGAAAGCCCUUUAAAGUAAUAGUGAAUUGUUUUAAAAUUAAGUUAUUGAGUGGCCUACUGACUACCAUCCAAAAACCUUUCAACAGAGGAUUGAGCAUCA
# B11: chr1:229632307:229632408:+|CDS|ENSG00000135763|unk|FALSE|bound_elsewhere (ssRNA)
# RNA: GGGAGUUCUACAGUCCGACGAUCAUUUUAUAAGAAAAAGCUUGAACUGAAGGAAGAUAUUGUUGAAAGGCUUUGGAUCUAUAUAGAUAACAUUUUACAUAGCAGAAAAUUGCAGAAUCUCCUCAAGAAUGGAAAGACCAUUAACAACAGAGGAUUGAGCAUCA
# B12: chr6:30110447:30110678:-|CDS|ENSG00000204616|control|control|control (ssRNA)
# RNA: GGGAGUUCUACAGUCCGACGAUCCCAGGUAGAACAUGAGAAGCAAAGGAUCCUCACAGAAUUUGAACUCCUGCAUCAAGUCCUAGAGGAGGAGAAGAAUUUCCUGCUAUCACGGAUUUACUGGCUGGGUCAUGAGGGAACGGACAACAGAGGAUUGAGCAUCA
# B13: chr4:4235611:4235720:-|3pUTR|ENSG00000132406|unk|FALSE|unique (ssRNA)
# RNA: GGGAGUUCUACAGUCCGACGAUCAUGAUAGUUUUGUUAGGUGACAGGACCAAAUGAAAAUAUUUUAUGUUUUCUCAUCACUUUAGAUUUUAUCAUUAUGUACAUUACUGGGUUUUUAGCAUUUCCUAAUGUGAAGUUUUAAUCCAACAGAGGAUUGAGCAUCA
# B14: ENSG00000198589:be:win_7001|CDS|ENSG00000198589|bound_else_gene|NA|bound_elsewhere_windowed (ssRNA)
# RNA: GGGAGUUCUACAGUCCGACGAUCGAGCUUGGCGAAACAGUCAGCGUGAUACCUCUGAUAUUAAGGAGUUGAUCCCUGAAUUUUAUUAUCUCCCUGAGAUGUUUGUCAACUUCAAUAAUUAUAAUCUUGGAGUGAUGGAUGAUGCAACAGAGGAUUGAGCAUCA
# B15: chr6:17764380:17764481:-|CDS|ENSG00000137177|msi1|total|mutant (ssRNA)
# RNA: GGGAGUUCUACAGUCCGACGAUCCCAGAGCAUCCCUGAGAAAAACUCCAAAUCACUGUGCAGGACUGGCUCAUGUUCAGAACCCGAUGCCUGCCCCAGCAAAAUCCGCCAGCCAGCCAGGGGAUUCUGCCCCAGGGAGGUGACCAACAGAGGAUUGAGCAUCA
# B16: chr8:67434037:67434240:-|three_prime_utr|ENSG00000165078|control|control|control (ssRNA)
# RNA: GGGAGUUCUACAGUCCGACGAUCCCCUUGUGAUGACACAUACUGUGGCCCUUUUCCAGAAUCUGAGCCGGAAGUGAAGGCUGUAGCUAACUUCCUUCGAAAACACAGAAAGCACAUUAGGGCUUAUCUCUCCUUUCAUGCAUACAACAGAGGAUUGAGCAUCA
# B17: chr11:214995:215097:+|3pUTR|ENSG00000177963|unk|FALSE|unique (ssRNA)
# RNA: GGGAGUUCUACAGUCCGACGAUCCCUCCUUCCUACUGGUUUAGACUACACUUACAACAAGGAAAAUGCCCCUCGUGUGACCAUAGAUUGAGAUUUAUACCACAUACCACACAUAGCCACAGAAACAUCAUCUUGAAAUAAAGACAACAGAGGAUUGAGCAUCA
# B18: chr19:12317476:12318593:-|three_prime_utr|ENSG00000188868|control|control|control (ssRNA)
# RNA: GGGAGUUCUACAGUCCGACGAUCCACCAUUGUCAACAUAAAACAACUCACAGAGCAGAAAAACUCUGUGAGUGUAAAAUAUGUAGGGAAGCCUUCAGUCAUUUUGGUAACUUAAAAGUACAUGAGGCUGGGCACAGUGGCUCACAACAGAGGAUUGAGCAUCA
# B19: chr20:3933335:3933436:-|3pUTR|ENSG00000101236|msi1|total|mutant (ssRNA)
# RNA: GGGAGUUCUACAGUCCGACGAUCUUACAACACCUGCUAUCAAAUCAUCUAAGCUGAAAACAUGAGAUGCGCUUGGAAAGGCCCCGUCAGAAGCCAUUUCCUCUUAUCAUUUCCCUCUCCUAUGCACCAGUAAGGCCCGUCCAGCAACAGAGGAUUGAGCAUCA
# B20: chr7:30013596:30013706:-|3pUTR|ENSG00000106080|msi1|total|mutant (ssRNA)
# RNA: GGGAGUUCUACAGUCCGACGAUCUUAUAUUCAAUAUUUACUUCUUAAGGCCCGCGGAAUAUCCUUCCUGGUUCUUUAAUGGGCCGUCUACCGUAUAUUAUACUACAAUAACAUUGUAUCAUAAGAUAAAGCCGUAAACCAGUCCAACAGAGGAUUGAGCAUCA
# B21: chr11:119314942:119315043:-|CDS|ENSG00000076706|msi1|FALSE|unique (ssRNA)
# RNA: GGGAGUUCUACAGUCCGACGAUCGGGAGACUCUGCCCCUCUUGUAGCCCAGGACCCUUCUCCUCCUCUGUGUCUCCUCCCAUUAGGUCCACAAGGAGAAGCGGACGCUCAUCUUCCGUGUGCGCCAGGGCCAGGGCCAGAGCGCAACAGAGGAUUGAGCAUCA
# B22: chr13:73693106:73693207:-|3pUTR|ENSG00000118922|msi1|FALSE|unique (ssRNA)
# RNA: GGGAGUUCUACAGUCCGACGAUCCAGAGAACACAGAGAGGGACAAACACAGCCAUGAACCCCCUGGCACUAGUACCAGCACCUAGUUGGCAAGUAGUGGGUGCAUCUCUCAAGUGAAGUGUAGAUUUGUAUUUAGUCCUGCUUCAACAGAGGAUUGAGCAUCA
# Molecular target: MSI1 full-length (mouse, UniProt Q61474 1-362)
# UniProt Q61474, sequence (Q61474 whole entry): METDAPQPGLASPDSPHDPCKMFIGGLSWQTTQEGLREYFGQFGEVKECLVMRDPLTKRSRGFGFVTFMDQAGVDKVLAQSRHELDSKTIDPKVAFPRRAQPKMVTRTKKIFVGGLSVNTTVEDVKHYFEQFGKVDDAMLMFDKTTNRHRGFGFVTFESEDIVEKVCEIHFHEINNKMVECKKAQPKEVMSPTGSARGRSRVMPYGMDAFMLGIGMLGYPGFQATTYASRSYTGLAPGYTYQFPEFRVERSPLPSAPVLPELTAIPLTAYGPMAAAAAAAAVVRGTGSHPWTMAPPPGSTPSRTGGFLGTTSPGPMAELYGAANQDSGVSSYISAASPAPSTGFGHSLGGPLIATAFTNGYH
# Assay: nsRBNS (natural sequence RNA bind-n-seq); RBNS binding buffer (assumed for nsRBNS): 25 mM Tris pH 7.5, 150 mM KCl, 3 mM MgCl2, 0.01% Triton X-100, 500 ug/ml BSA, 20 U/ml SUPERase-In, 4 C; UNK is unkempt and MSI1 is Musashi-1; names of the RNAs are library labels; protein concentration not given here; high values mean tight binding
row,Binder,binding signal [enrichment R]
1,B1,0.299
2,B2,1.5
3,B3,0.99
4,B4,2.22
5,B5,0.319
6,B6,0.586
7,B7,0.403
8,B8,0.4
9,B9,0.543
10,B10,10
11,B11,9.48
12,B12,0.909
13,B13,5.29
14,B14,0.315
15,B15,0.475
16,B16,0.677
17,B17,8.28
18,B18,0.393
19,B19,0.482
20,B20,2.16
21,B21,0.577
22,B22,3.71
